According to PMC4336329 (PLoS ONE, 2015):
The whole screen tested about 310,000 compounds, of which about 14,000 (4.5%) showed an effect of 50% or more. The effect is printed as a negative number. The list shows a part of the results.

These compounds were tested against human ether-à-go-go-related gene (hERG) potassium channel (human, UniProt Q12809) (assay: primary screen, population patch clamp on CHO cells stably expressing hERG).
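Further: peak tail current of the secondary pulse compared with the same well before compound.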

Chain of human ether-à-go-go-related gene (hERG) potassium channel (Q12809 whole entry, looked up): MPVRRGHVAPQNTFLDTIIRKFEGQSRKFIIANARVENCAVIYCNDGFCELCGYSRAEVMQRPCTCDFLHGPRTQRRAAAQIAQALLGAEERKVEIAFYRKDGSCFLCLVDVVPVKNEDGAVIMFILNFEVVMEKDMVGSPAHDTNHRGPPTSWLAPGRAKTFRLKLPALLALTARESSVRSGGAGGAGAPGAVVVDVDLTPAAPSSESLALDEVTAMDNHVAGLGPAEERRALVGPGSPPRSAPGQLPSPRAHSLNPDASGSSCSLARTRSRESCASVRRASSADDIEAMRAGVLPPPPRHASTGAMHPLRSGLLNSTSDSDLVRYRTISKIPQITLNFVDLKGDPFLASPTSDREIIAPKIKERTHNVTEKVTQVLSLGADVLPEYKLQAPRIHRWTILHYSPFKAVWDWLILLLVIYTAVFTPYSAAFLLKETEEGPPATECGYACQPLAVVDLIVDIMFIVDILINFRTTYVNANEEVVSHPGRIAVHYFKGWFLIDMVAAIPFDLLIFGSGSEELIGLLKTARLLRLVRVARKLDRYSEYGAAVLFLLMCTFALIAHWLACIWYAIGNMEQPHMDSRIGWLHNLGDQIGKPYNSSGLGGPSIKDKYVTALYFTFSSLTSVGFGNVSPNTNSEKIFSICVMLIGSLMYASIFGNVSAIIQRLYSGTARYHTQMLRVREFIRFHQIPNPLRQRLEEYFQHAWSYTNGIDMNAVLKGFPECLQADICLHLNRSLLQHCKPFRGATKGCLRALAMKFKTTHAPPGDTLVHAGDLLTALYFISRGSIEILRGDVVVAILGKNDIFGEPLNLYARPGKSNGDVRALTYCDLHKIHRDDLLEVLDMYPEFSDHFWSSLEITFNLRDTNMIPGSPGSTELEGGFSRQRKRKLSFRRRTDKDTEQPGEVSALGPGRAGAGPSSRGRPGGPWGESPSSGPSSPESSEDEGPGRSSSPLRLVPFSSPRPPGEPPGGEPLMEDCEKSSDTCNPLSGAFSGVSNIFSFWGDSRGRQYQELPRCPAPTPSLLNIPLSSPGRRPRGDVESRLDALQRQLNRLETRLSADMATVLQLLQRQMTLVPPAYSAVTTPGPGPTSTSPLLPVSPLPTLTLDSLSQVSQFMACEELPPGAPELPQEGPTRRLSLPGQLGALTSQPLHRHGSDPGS

Compound | hERG current change (%, negative = inhibition) at 10uM
CSc1ccccc1OCc1cc(C(=O)NC(C)Cc2cccc(C)n2)no1 (stereo not drawn) | -3.04%
O=C(CCNC(=O)c1ccccc1)NCc1ccccc1F | -7.91%
Cc1csc(Nc2nc(N)c(C(=O)Nc3ccccc3)o2)n1 | 17.1%
O=C(COC(=O)[C@H](Cc1ccccc1)NC(=O)c1cccs1)NC1CC1 | -1.96%
NC(=O)C1(N2CCCCC2)CCN(C(=O)NC23CC4CC(CC(C4)C2)C3)CC1 | -10.8%
CC1CCN(C(=O)c2[nH]cnc2C(=O)N(C)Cc2ccccc2)CC1 | 16.3%
Cc1ccc(SCC2=NNC(=O)C2)cc1 | -3.78%
C=CCn1c(=O)c2ccccc2n2c(SC(C)C(=O)Nc3nc(-c4ccccc4)cs3)nnc12 (stereo not drawn) | -40.6%
Cc1ccc(C)c(S(=O)(=O)N2CCCOC2CNC(=O)C(=O)NCc2ccccn2)c1 (stereo not drawn) | 5.01%
I.c1ccc(Sc2cccc3ccccc23)c(CNC2=NCCN2)c1 | -13.2%
COCCCNC(=O)c1ccc2c(=O)n(C3CCCC3)c(=S)[nH]c2c1 | -2.89%
CCOC(=O)N/N=C(\C)c1ccccc1OC(F)F | -8.58%
COc1ccc(N(CC(=O)Nc2cc(C(=O)O)ccc2C)S(=O)(=O)c2c(C)noc2C)cc1 | -15.4%
COC(=O)c1ccc(NC(=O)C2CCCN2C(=O)OCc2ccccc2)cc1 (stereo not drawn) | 3.3%
CC(C)(C)NC(=O)C[n+]1ccc(C(N)=O)cc1.[Cl-] | 8.05%
CCOc1cc(/C=C/C(=O)c2ccc(OC)c(CN3CCOCC3)c2)cc(Br)c1O | -32.5%
COC(=O)[C@H](CC(C)C)NC(=O)CCc1nnc(COc2ccccc2)o1 | 19.4%
Cc1ccc2c(c1)C(c1ccc(F)cc1)N(C(=O)c1ccc(S(=O)(=O)N(C)C)cc1)CC(=O)N2 (stereo not drawn) | -33.9%
CS(=O)(=O)N1CCN(C(=O)CCc2ccccc2)CC1 | 9.93%
O=C(Nc1ccncc1)Nc1cccc(Cl)c1Cl | -3.97%
Nc1c(C(=O)Nc2ccccc2)sc2nc(-c3ccco3)ccc12 | 10.3%
CC(C)(C)CN1CCN(Cc2cccnc2)CC1CCO (stereo not drawn) | 13.6%
COc1ccc(OC)c(C(c2nnnn2CCc2ccccc2)N2CCC(C(N)=O)CC2)c1 (stereo not drawn) | -4.58%
COC(=O)c1ccc(NC(=O)Nc2cccc(F)c2)cc1 | 1.77%
O=C(Nc1nccs1)c1ccc(Cl)c(S(=O)(=O)N2CCOCC2)c1 | -36%
O=C1[C@H]2[C@@H](c3ccc(F)cc3)N3C(=O)N(c4cccc(Cl)c4)C(=O)[C@@]3(Cc3ccc(Cl)cc3)[C@H]2C(=O)N1C1CCCCC1 | 7.9%
Cc1ocnc1C(=O)Nc1ccc(Cl)cc1 | 9.52%

Compound | hERG current change (%, negative = inhibition) at 10uM
CS(=O)(=O)c1ccc2nc(NC(=O)c3cccs3)sc2c1 | -17.7%
O=C(CN1CCN(c2ccc(Cl)cc2)CC1)N1CCCC1 | -22.6%
N#CCc1nn(-c2ccccc2)c2ncnc(N)c12 | -4%
COc1ccc(N2CCN(C(=O)COC(=O)/C=C/c3ccc(OC(F)F)cc3)CC2)cc1 | -1.18%
Cc1ccc(-c2csc3nnc(SCC(=O)N4CCN(Cc5ccccc5)CC4)n23)cc1 | -55.3%
CN(C)CCCN(C(=O)c1ccc(S(=O)(=O)N(C)C2CCCCC2)cc1)c1nc2ccc(F)cc2s1.Cl | -71.9%
O=C(CC1SC(=Nc2ccccc2)N(CCc2c[nH]c3ccccc23)C1=O)Nc1ccccc1F (stereo not drawn) | 11.7%
CCOc1ccccc1N1CCN(CC(O)COCc2cccs2)CC1 (stereo not drawn) | -32.1%
Cc1cc(C)c(C#N)c(Sc2nnnn2-c2ccccc2)n1 | -3.72%
CCOC(=O)c1ccc(NC(=O)CSc2nnc(NC(=O)c3ccc(S(=O)(=O)N4CCOCC4)cc3)s2)cc1 | -1.05%
Cc1ccc(OCCCC(=O)Nc2ccc(N3CCOCC3)cc2)cc1 | 20.7%
O=C(c1ccc([N+](=O)[O-])cc1)N1CCN(Cc2ccccc2)CC1 | -66.4%
CCOc1ccc(-c2nnc3ccc(SCC(=O)N4CCCCC4)nn23)cc1 | -5.88%
CC(=O)c1c(C)[nH]c(C(=O)NCCN2CCC(C)CC2)c1C | -0.0448%
O=C(C1CCN(S(=O)(=O)c2cnc[nH]2)CC1)N1CCc2ccccc2C1 | 13.1%
Cc1cc(NC(=O)CCC(=O)N(Cc2ccco2)C2(C(=O)NC3CCCCC3)CCN(C)CC2)no1 | 1.56%
COc1ccc(C2=NN(c3nc(C)cc(C)n3)C(=O)C2)cc1 | -0.463%
OC1(c2cccc(C(F)(F)F)c2)CCN(Cc2nc(-c3cnccn3)no2)CC1 | -0.399%
O=C(NCc1ccccc1Cl)C1CCC(=O)N(CC2CCCCC2)C1 (stereo not drawn) | -2.61%
COc1ccc(/C=N/NC(=O)C2C(=O)NCC2c2ccccc2)c(OC)c1 (stereo not drawn) | 13.2%
COCCn1c(SCC(=O)NC2CC2)nnc1-c1ccco1 | 3.05%
CCOC(=O)C1=C(C)Nc2nnnn2C1c1ccc(OC)c(Br)c1 (stereo not drawn) | 3.26%
CCn1ccnc1[C@@H]1C[C@H]2CN(Cc3cccc(Cl)c3)C(=O)[C@]23CCCN13 | -39.3%
CCOc1ccc(N2C(=O)/C(=C/c3ccc(C)o3)C(=O)NC2=S)cc1 | 21.5%
Fc1ccc(-n2nnc(-c3ccnc4ccccc34)n2)cc1 | -1.35%
Cc1ccc2nc3ccc(N4CCN(C)CC4)nn3c(=O)c2c1 | -33.9%
Cc1cc(C)nc(NC(=NCCc2c[nH]c3ccccc23)NC(=O)Nc2ccccc2)n1 | 2.01%
